Values joined by “and” are separate entries in the source; they are usually repeats but may differ in a detail not shown here. Equal values may be shown once. The whole screen tested about 50,000 compounds, of which about 800 (1.6%) showed an effect of 50% or more. The list shows a part of the results.
These molecules were tested against Bcl-2-like protein 10 (Homo sapiens) (UniProt Q9HD36) (assay: TR3 peptide-Bcl-B binding displacers, biochemical primary FP assay, phenotype converters (AID 1240;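 further: 0% = Bcl-B with tracer peptide and DMSO and 100% = tracer peptide lacking Bcl-B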)). Settings: GST-Bcl-B / FITC-TR3 peptide fluorescence polarization; stronger effect = higher value; compound at 3.75 mg/L.
Chain of UniProt Q9HD36 (Q9HD36 whole entry, looked up): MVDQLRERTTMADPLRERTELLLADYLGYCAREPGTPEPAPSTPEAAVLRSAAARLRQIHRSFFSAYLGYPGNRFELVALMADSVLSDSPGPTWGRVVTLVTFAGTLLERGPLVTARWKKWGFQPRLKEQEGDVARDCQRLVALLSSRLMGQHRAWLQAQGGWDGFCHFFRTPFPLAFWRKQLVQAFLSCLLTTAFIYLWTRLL

Structure (SMILES)	displacement
O=C1NC(=S)NC(=O)C1=Cc1ccc(O)c(O)c1	7.6%
COc1cc(/C=C/c2nc3ccccc3c(=O)n2-c2ccccc2)ccc1O	5.6%
O=c1c2ccccc2nc(-c2ccccc2F)n1-c1ccccc1	14.1%
c1cc(CN2CCN(C3CC4CCC3C4)CC2)ccn1 (stereo unspecified)	-7.2%
CCc1ccc(CN2CCN(Cc3cc(Br)ccc3O)CC2)cc1	-8.4%
Cc1nc2cc([N+](=O)[O-])ccc2c(=O)n1-c1ccc(Cl)cc1	71.3%
CCOC(=O)C(P(=O)(OCC)OCC)P(=S)(c1ccccc1)c1ccccc1 (stereo unspecified)	11%
CCc1ccc(N2C(=O)/C(=C/c3ccc(OCC(=O)O)c(Br)c3)C(=O)NC2=S)cc1	-0.7%
O=C1NC(=O)C(=Cc2cc(Cl)c(O)c(Cl)c2)C(=O)N1	-7.7%
COc1ccc(/C=C/c2nc3ccccc3c(=O)n2-c2ccc(OC)cc2)cc1	-2%
O=[N+]([O-])/N=C1\NCN(c2ccc(Cl)cc2)CN1c1ccccc1	1.8%
C=CCN1C(=O)/C(=C\c2cccs2)C(=O)NC1=S	-2.1%
Clc1ccc(CCNCc2ccc3c(c2)OCO3)c(Cl)c1	2.1%
COc1ccc(CCNC2CC3CCC2C3)cc1OC (stereo unspecified)	3.8%
COc1ccc(O)c(CN2CCN(Cc3ccc(Br)cc3)CC2)c1	5.5%
CCCCOc1cc(C)cc2oc(=O)c3c(c12)CCC3	9.6%
COC(=O)c1cccc(-c2ccc(C=C3C(=O)NC(=S)NC3=O)o2)c1	1.1%
O=C1NC(=O)C(=Cc2ccc(N3CCOCC3)cc2)C(=O)N1	78.9%
CCC(=O)Nc1ccc(Cl)c(Cl)c1	11.4%

Structure (SMILES)	displacement
O=C(Cc1ccccc1)N1CCN(Cc2ccc(F)cc2)CC1	-18.7%
O=C(COc1ccccc1)N1CCN(Cc2cccc(Cl)c2)CC1	-14.6%
Fc1ccc(CN2CCN(Cc3cccc(Br)c3)CC2)cc1	-9.7%
O=C(NC1CCSC1=O)c1cccs1 (stereo unspecified)	-6.7%
O=C(CNC(=O)c1ccccc1Cl)Nc1ccc(Br)cc1C(=O)c1ccccc1	11.1%
CCN(CC)c1ccc(CC2C(=O)N(C)C(=O)N(C)C2=O)cc1	24.9%
Cc1cc(-c2ccc(C=C3C(=O)NC(=O)NC3=O)o2)ccc1[N+](=O)[O-]	13.1%
CCCCCC1(C)NCCN2C(=O)CSC21 (stereo unspecified)	0.1%
O=c1c2ccccc2nc(-c2ccco2)n1-c1ccc(Br)cn1	0.8%
O=C1NC(=S)N(c2ccc(Br)cc2)C(=O)/C1=C/c1ccc(-c2ccc(C(=O)O)cc2)o1	21.4%
COC(=O)c1c(NC(=O)C23CC4CC(CC(C4)C2)C3)sc2c1CCCC2	-4.6%
COc1ccc(N2C(=O)/C(=C/c3ccc(-c4cc(C(=O)O)ccc4Cl)o3)C(=O)NC2=S)cc1	10.9%
O=C1NC(=S)N(c2ccc(F)cc2)C(=O)/C1=C/c1ccc(Br)o1	-40%
Nc1c2c(nc3ccccc13)CCCCC2	0.8%
CCN1C(=O)/C(=C/c2cccn2C)C(=O)NC1=S	45.4%
Cc1ccc(C=C2C(=O)NC(=S)N(c3ccccc3F)C2=O)s1	14.7%
O=c1c2ccccc2nc(-c2cccnc2)n1-c1ccc(Br)cn1	15.5%
CCCCOC(=O)C1CN1C(C)(C)C(=O)OCC (stereo unspecified)	14.7%
COc1ccc(OCC(=O)N2CCN(C)CC2)cc1	-0.7%

Structure (SMILES)	displacement
Cc1ccccc1CN(CCc1ccc2c(c1)OCO2)Cc1ccccc1C	-4.4%
CC(=O)Oc1ccccc1C(=O)Oc1ccc2c(c1)c(C(C)=O)c(C)n2Cc1ccccc1	-14.5%
C=CCN1C(=O)NC(=O)/C(=C/c2ccc(-c3cc([N+](=O)[O-])ccc3Cl)o2)C1=O	84.3%
CC(C)OC(NC(=O)c1ccco1)C(Cl)(Cl)Cl (stereo unspecified)	15%
CC(C)Oc1c(Br)cc(Br)cc1C=C(C#N)C#N	5.4%
O=C(COc1ccc2ccccc2c1)N1CCN(C2CC3CCC2C3)CC1 (stereo unspecified)	2%
C[n+]1ccc(-c2ccncc2)cc1	-3.4%
COCCOC(=O)C1CN1C(Cc1ccccc1)C(=O)OC (stereo unspecified)	-13.9%
CCN(CC)S(=O)(=O)c1ccc(C(=O)Nc2ccc([N+](=O)[O-])cc2C(=O)c2ccccc2)cc1	-9.4%
CCn1cc(C=C2C(=O)NC(=O)NC2=O)c2ccccc21	12.6%
COc1cccc(-n2c(/C=C/c3ccc4c(c3)OCO4)nc3ccccc3c2=O)c1	-16%
CCOC(=O)c1c(C)n(CC(C)C)c2ccc(OC)cc12	12.2%
O=S(=O)(c1cc(Cl)c(O)c(Cl)c1)c1cc(Cl)c(O)c(Cl)c1	9.2% and 13.6%
O=C1c2ccccc2C(=O)N1Cc1nc2ccccc2c(=O)n1-c1nccs1	-5%
C=CCc1cc(/C=C2/C(=O)NC(=O)N(c3ccc(C(C)C)cc3)C2=O)cc(OC)c1O	-24.8%
Cc1cc([N+](=O)[O-])ccc1-c1ccc(/C=C2/C(=O)NC(=O)N(C)C2=O)o1	11.4%
Clc1ccc(CCNCc2ccccn2)c(Cl)c1	-8%
Cc1cccc(-n2c(/C=C/c3ccc4c(c3)OCO4)nc3ccccc3c2=O)c1	-0.4%

From PubChem BioAssay AID1240 (Sanford-Burnham Center for Chemical Genomics, 2008)
